Assay results as given in PubChem BioAssay AID1347120 (National Center for Advancing Translational Sciences (NCATS), 2019).
About 930 (0.24%) of roughly 390,000 compounds were called active. Inconclusive means that the source gave no clear call. Such entries were picked first, then a sample of the others. The call rests on the fitted dose curve; in most records, active means well fitted activation curve with a large enough effect; inconclusive means small, poorly fitted or top-dose-only effect; inactive means no such curve, though single readings can be large or run the other way. A potency beside an inconclusive call is a rough fit, not a confirmed value.

Experiment: qHTS for Suppressors of FUS Proteinopathy: Primary screen using FUS-linked yeast assay; further: nearly all actives have a fitted effect of over 55% in size;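 on growth rescue (activation): plate controls were DMSO vehicle for no effect and reference control for full effect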
Settings: S. cerevisiae FUS-expressing, OD600, 24 h; Potency: growth rescue; growth rescue (activation): at 76.6 µM (top of the series)
Outline: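 Cultures pregrown in 2.5% raffinose medium are shifted to minimal medium containing 2% galactose to express toxic FUS. Compounds are tested at several concentrations. After 24hr at 30C, growth is quantified at 600 nm absorbance.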
Potency means the concentration at half of the fitted maximal effect; tags describe the fitted curve by direction and shape.

Compound | Potency | growth rescue (activation)
COc1ccc(C(C(=O)NCc2ccccc2)N(Cc2ccco2)C(=O)c2snc(C(N)=O)c2N)cc1 (stereo not given) | inconclusive: 39.8 µM [activator, single point] | –
CCc1ccc(N=C2NC(=O)/C(=C/c3cc(OC)c(O)c(OC)c3)S2)cc1 | inconclusive: 50.1 µM [activator, single point] | –
COc1ccc(-c2nc(C)c(CCNC(=O)C(=O)Nc3cc(C)cc(C)c3)s2)cc1OC | – | inactive: -20.1%
COc1cc2ccc(C(C)=NNC(N)=S)cc2cc1OC | – | inactive: 3.11%
COc1cccc(NC(=O)N2CCc3nc(Nc4cc(Cl)cc(Cl)c4)ncc3C2)c1 | active: 28.2 µM | –
C#CCOc1c(Br)cc(/C=C2/C(=O)ON=C2C)cc1OCC | – | inactive: 7.11%
CCn1cc(C(=O)NCc2ccc3c(c2)OCO3)c(=O)c2cc(F)c(N3CCN(C(=O)c4ccco4)CC3)cc21 | – | inactive: 38.5%
COc1ccc(NC(=O)c2c(C)oc3ccc(O)c(CN4CCCCCC4)c23)cc1Cl | inconclusive: 31.6 µM [activator, single point] | –
O=C(c1ccc2c(c1)OCCO2)N1CCN(c2ncc(C(F)(F)F)cc2Cl)CC1 | inconclusive: 35.5 µM [activator, single point] | –
O=[N+]([O-])c1nn(-c2ccc(Cl)cc2)n(O)c1=NCc1ccccc1Cl | – | inactive: 2.37%
CC(C)(C)c1ccc(C(=O)NNc2cc(N3CCCCC3)nc(N3CCCCC3)n2)cc1 | inconclusive: 28.2 µM [activator, partial curve, poor fit] | –
CCS(=O)(=O)Nc1cccc(C2=NN(S(=O)(=O)c3ccc(C)cc3)C(c3cccs3)C2)c1 (stereo not given) | inconclusive: 17.8 µM [activator, partial curve, poor fit] | –
COc1ccc([N+](=O)[O-])cc1NC(=S)NC(C)=O | – | inactive: -0.384%
C[C@@H]1COc2cc(Br)ccc2S(=O)(=O)N1Cc1cn(CCC2OCCO2)nn1 | – | inactive: -6.46%
O=C(CSC1=NNC(c2ccccn2)S1)Nc1cccc(Cl)c1 (stereo not given) | – | inactive: 21.6%
CCCCCCCCN1C(=O)[C@H](CC(=O)N2CCN(C(=O)c3ccco3)CC2)C[C@@]2(C(=O)OCC)CCCC=C12 | inconclusive: 15.8 µM [activator, partial curve, poor fit] | –
Cc1cc(C(=O)N/N=C/c2ccc([N+](=O)[O-])o2)c(C)o1 | – | inactive: 24.4%
COc1ccc(Cn2c(=O)[nH]c3cc(C(=O)N4CCN(c5ccccc5OC)CC4)ccc3c2=O)cc1 | inconclusive: 20 µM [activator, partial curve] | –
COc1ccc(NC(=O)Cn2c(=O)n(-c3ccc(C)cc3)c(=O)c3c2cnn3C)cc1 | inconclusive: 35.5 µM [activator, partial curve] | –
CCc1ccc(Nc2n[n+](-c3ccccc3)c(-c3ccc(SC)cc3)s2)cc1 | inconclusive: 44.7 µM [activator, partial curve, poor fit] | –

Compound | Potency | growth rescue (activation)
COC(=O)C1=C(C(=O)OC)[C@@H]2N(Cc3ccccc3)c3ccccc3[C@@]23C[C@@H](CO)N(C(=O)NC2CCCC2)C3=N1 | inconclusive: 35.5 µM [activator, single point] | –
CC(C)CCNC(=O)C1CCN(c2nc3ccc(Cl)cc3[nH]2)CC1 | – | inactive: -1.45%
Cc1ccc(Cn2c(SCC(=O)C(C)(C)C)nc3ccsc3c2=O)cc1 | inconclusive: 39.8 µM [activator, single point] | –
CN1CCc2nc3sc(C(=O)Nc4ccccc4OC(F)(F)F)c(N)c3cc2C1 | inconclusive: 31.6 µM [activator, single point] | –
CCN(CC(=O)Nc1cc(Cl)ccc1C)C(=O)C1CC(=O)N(Cc2ccccc2)C1 (stereo not given) | inconclusive: 50.1 µM [activator, single point] | –
CC(=O)Oc1ccc(N2C(=O)CC(N3CCOCC3)C2=O)cc1 (stereo not given) | inconclusive: 11.2 µM [activator, partial curve, poor fit] | –
O=C(c1cccc(S(=O)(=O)N2CCN(c3ccc(F)cc3)CC2)c1)N1CCCC(C(F)(F)F)C1 (stereo not given) | inconclusive: 39.8 µM [activator, partial curve, poor fit] | –
CCCCCCCCCC(=O)N1c2ccccc2NC(=O)C1CC(=O)Nc1ccc(C(=O)O)cc1 (stereo not given) | inconclusive: 28.2 µM [activator, single point] | –
Cc1sc2ncn(CC(=O)N3CCN(c4ccc(Cl)cc4)CC3)c(=O)c2c1S(=O)(=O)N1CCN(c2ncccn2)CC1 | inconclusive: 35.5 µM [activator, single point] | –
O=C(Cn1nc(-c2ccccc2)ccc1=O)NCCc1ccccc1F | – | inactive: 26.7%
Cc1ccc(Nc2ncc(C(=O)N3CCN(c4cccc(Cl)c4)CC3)c3ccccc23)cc1Cl | inconclusive: 22.4 µM [activator, single point] | –
CCn1c(CC(=O)Nc2ccc(C)c(Cl)c2)nnc1SCC(=O)Nc1nc(C)cs1 | – | inactive: 7.67%
COc1ccc(C2CC(c3ccc(C(F)(F)F)cc3)=NN2c2ccc(S(N)(=O)=O)cc2)cc1 (stereo not given) | inconclusive: 44.7 µM [activator, single point] | –
O=c1oc(-c2ccccc2)nc2c1C1(CCCCC1)Cc1ccccc1-2 | – | inconclusive: 62.6% [activator]
COc1ccc(N2CCN(c3nc(-c4cccs4)nc4ccccc34)CC2)cc1 | inconclusive: 12.6 µM [activator, partial curve, poor fit] | –
CCOC(=O)c1c(N2C(=O)C=CC2=O)sc(C)c1C | inconclusive: 5.01 µM [activator, partial curve, poor fit] | –
COc1ccc(NC(=O)C2Cc3c(-c4ccccc4Oc4ccccc4)ccnc3O2)cn1 (stereo not given) | inconclusive: 39.8 µM [activator, single point] | –
O=C(NC(=S)Nc1ccccc1C(=O)O)c1ccc(-c2ccc(Br)cc2)o1 | inconclusive: 6.31 µM [activator, full curve] | –
CCCn1c2ccccc2c2cnn(CC(=O)N(Cc3ccccc3)C(C)C)c(=O)c21 | inconclusive: 28.2 µM [activator, single point] | –
CC(C)(C)OC(=O)NCc1ccc(CNC(=O)c2[nH]cnc2C(=O)NC2CCN(C(=O)OC(C)(C)C)CC2)cc1 | inconclusive: 28.2 µM [activator, single point] | –
